# Out of some 150,000 compounds screened, about 540 (0.36%) showed an effect of 50% or more. Some of the results follow.
# Tested on: Plasmodium falciparum
# Test: Primary screen in NF54 nanoGlo assay, in single point, at 2uM, 72h; a lower Z score goes with more inhibition
# Assay type: functional, Erythrocyte
# Settings: timepoint 72 hour
Structure (SMILES),% Inhibition [%],Z score
Cc1nc[nH]c1CN1C[C@H]2CC[C@@H](C1)N(Cc1c(Cl)cncc1Cl)C2,-4,0.55
O=C1CC2(CCN(c3nccc4ccccc34)CC2)CN1,7,-1.01
O=C(N[C@@H]1CN(C(=O)Cc2c[nH]c3ccccc23)C[C@H]1CO)c1ccccc1,-2,0.33
COc1ccc([C@H](C)NC(=O)c2cnc(C)cc2O)cc1,-5,0.66
CC[C@@H](c1ccncc1)N(C)C(=O)NCc1ccc(OC(C)(C)C)nc1,2,-0.29
CCc1ccc2ncc(C(=O)c3ccc(Cl)cc3)c(O)c2c1,48,-6.47
Cc1ccc(NC(=O)CN2C(=O)CCCc3cc(S(=O)(=O)N4CCC(C)CC4)ccc32)c(C)c1,-15,1.94
CC(C)(C)c1ncc(N2C(=O)C3CC4CCCCC4N3C2=O)cn1 (stereo unspecified),0,0.02
CO[C@@H](CNC(=O)Cc1ccsc1)c1ccc(Cl)s1,-24,3.06
O=C(CCc1cc2n(n1)CCN(C(=O)c1ccc[nH]1)C2)N1CCCC1,-8,1.09
COC(=O)c1nc(NC(=O)C[C@@H]2NC(=O)N(Cc3ccccc3)C2=O)sc1C(C)C,-12,1.89
Cc1cccc(CN2CCC[C@H]2C(=O)Nc2ccc(-c3cscn3)cc2)n1,-2,0.29
Cc1ccccc1-c1noc(-c2nn(-c3ccccc3)c(=O)c3ccccc23)n1,16,-1.86
CNC(=O)C1(C)CCN(c2ncnc3c2ncn3CC(O)C2CCCO2)C1 (stereo unspecified),-23,3.34
Cc1noc(C)c1C(=O)NC1CCCCC1Cc1ccco1 (stereo unspecified),-8,1.11
Cc1ccc(NC(=O)[C@@H]2CNCCN2C(=O)c2occc2C)cn1,7,-1.4
Cc1oc(-c2cc(F)ccc2F)nc1CN1CCCC[C@H]1c1nc2cc(F)ccc2[nH]1,-3,0.58
Cc1cc(C)n(-c2ccnc(N3CCN(c4ccccc4)CC3)n2)n1,-16,1.7
CON(C)C(=O)CCN(C)Cc1nccn1C(F)F,-2,0.3
CCc1c(C)nn(C)c1NC(=O)CCc1cccnc1,-16,3.11
COC(=O)c1ncn(Cc2nn(-c3ccc(F)cc3)c3c2CCC3)n1,-3,0.52

Structure (SMILES),% Inhibition [%],Z score
CCn1ncc2cc(C(=O)N3CC(=O)N(CC4CC4)C3)c(C)nc21,-14,1.22
O=C(NCCC1=CCCCCC1)c1cc2[nH]cnc2cc1F,-30,3.17
CC1CCN(C(=O)Cn2cc(C(=O)C3CCCCC3)c3ccccc32)CC1,-5,0.58
C[C@H]1COCCN1C(=O)NCc1nc2cccc(Cl)c2n1C,-9,1.72
CC#CCNC(=O)N1CCN(CC(C)(C)O)C[C@@H]1C,23,-2.91
CCCNC(=NC)NCCCc1nc(C)cs1,30,-3.35
COc1ccc(CNC(=O)c2ccc(-n3c(C)cc4c3CC[C@H](C)C4)cc2)cc1,3,-0.37
Cc1ccc(C)c([C@@H]2CCCN2C(=O)Cc2ccon2)c1,-8,1.32
Cc1cc(NC(=O)c2ccco2)c(C)cc1NC(=O)c1ccco1,-11,2.01
COc1ccc(NC(=O)N2CCC(CC3CCC(C)CC3)CC2)cc1OC (stereo unspecified),-5,0.9
CC(C)CN1C(=O)CC[C@@H](C(=O)NCCN2CCN(c3ccccc3F)CC2)[C@H]1C,-13,1.74
CC(C)(C(=O)NCCOCCO)[C@H]1CCC[C@@H](C(F)(F)F)N1,-6,0.93
CCn1cc(NC(=O)C(=O)NCc2ccc(OC)cc2)cn1,-15,2.47
CC(C)(C)OC(=O)N1CCc2ncn(Cc3ccc(F)cc3)c(=O)c2C1,37,-4.71
CC(C)c1nnc(CNC(=O)[C@H]2CCN(Cc3ccccc3)C2)[nH]1,1,-0.11
Cc1nc(CCNC(=O)[C@@H]2CC[C@H](C(=O)O)C2)sc1Cl,-3,0.4
CS(=O)(=O)N1CCN(c2ccc(-c3ccncc3)nn2)CC1,-14,2.11
CN(C)c1ccc(CNC(=O)C2CCN(c3cncnc3N(C)C)CC2)cc1,-5,1
O=C1C[C@H](N2C(=O)c3ccccc3C2=O)C(=O)O1,-3,0.41
CC(C)N(C(=O)COC(=O)c1cnc(-c2ccncc2)s1)C(C)C,-8,1.31
CC1(C)NC(=O)N(CCCN2CCCc3cc(OC(F)(F)F)ccc32)C1=O,-2,0.23

Structure (SMILES),% Inhibition [%],Z score
O=C(c1ccco1)N1CCC(C(=O)N2CCCCCCC2)CC1,-6,1.1
CC(C)Cc1ccc(C(=O)NCc2ccc3c(c2)OCO3)o1,-11,1.87
CCn1ccnc1CNC(=O)NC1CCCC2OCCC12 (stereo unspecified),-5,0.59
CC(C)(CO)NS(=O)(=O)c1c(Br)cc(F)cc1Br,-11,1.71
O=C(c1ccc(F)cc1)N1CCC2(CC1)N(Cc1cccc(F)c1)C(=O)C[S@+]2[O-],-4,0.71
CC1CCCC2(C1)OCC(C(=O)N1CCN(C)CC1)N2C(=O)c1ccccc1F (stereo unspecified),-11,1.51
CC(C)N(CC(N)=O)Cc1ccccc1Br,-5,0.52
O=C(c1cc2ccccc2[nH]1)N1CCc2[nH]cnc2C1,-5,0.95
CCn1c(=O)c(N2CCN(C(=O)COc3ccc(Cl)cc3C)CC2)nc2ccncc21,-17,1.62
COc1ccc(-c2ccc(=O)n(CN3CCN(Cc4ccccc4)CC3)n2)cc1OC,7,-0.84
CCOc1ccc(Cl)cc1-c1cc(C)n[nH]c1=O,-8,1.52
O=C1C2ON=C(c3cccnc3)C2C(=O)N1c1cc(Cl)cc(Cl)c1 (stereo unspecified),2,-0.28
O=C(Nc1nccs1)N1CC(O)CC1CO (stereo unspecified),34,-4.86
O=C(Nc1ccccc1F)c1oc2ccccc2c1NC(=O)c1cccc2ccccc12,-3,0.5
CCC[C@@H](C(=O)N1CC2(CCOCC2)C1)c1ccccn1,-23,2.5
O=S1(=O)N=C(NCCNC2=NS(=O)(=O)c3ccccc32)c2ccccc21,35,-3.99
CCC(=O)NCCc1csc(C2CCN(C(=O)c3ccc4ccccc4n3)CC2)n1,-2,0.2
Cc1cnc(-n2ncc(C(=O)N3CCN(C4CCCCC4)CC3)c2C2CC2)nc1-c1cccs1,-4,0.86
Cc1nc2ncc(-c3cccc(N(C)C)c3)cc2[nH]1,-17,1.53
CC1CC(C)CN(S(=O)(=O)NC2CN(C(=O)OC(C)(C)C)C2)C1 (stereo unspecified),-15,1.45
COCC1(CNC(=O)C2(C)CCN(C)CC2)CCCC1,-10,1.75

Structure (SMILES),% Inhibition [%],Z score
O=C(Nc1ccc(CCc2nc3ccccc3[nH]2)cc1)c1ccccc1,-17,1.72
Cc1csc(N2CCC[C@H](C(=O)c3ccccc3)C2)n1,-21,1.91
CC(C)CN(CC(=O)N(Cc1cccn1Cc1ccccc1Cl)C1CCCCC1)C(=O)c1cccc2ccccc12,4,-0.69
COc1ccc(CNC(=O)N(Cc2ccco2)C2CCOCC2)cc1,-7,1.08
C[C@@H](CN(C)C(=O)c1ccccc1-c1cncnc1)c1ccccc1,-5,0.44
CC(NCC1CCc2nncn2C1)c1nc(-c2cccs2)no1 (stereo unspecified),-3,0.26
Cc1cnn(CCN(Cc2coc(-c3cccs3)n2)Cc2coc(-c3cccs3)n2)c1,-1,0.17
CC#CC(=O)N1CCC([C@]2(CCc3ccccc3)NC(=O)N(CCN(C)C)C2=O)CC1,-6,0.67
Cc1nncn1CCN(C)Cc1nc(CC(C)C)no1,-14,1.82
C=CCn1cc(CN2CCN(c3ncc(Cl)cn3)CC2)c(C)n1,1,-0.17
CCN1CCN(C(=O)CCN(CCCN2CCOCC2)c2nc(-c3ccccc3Cl)nc3ccccc23)CC1,2,-0.22
O=C(N[C@H]1CC[C@H](O)CC1)c1ccccc1NCc1ccco1,-4,0.63
Cc1cc(C(=O)NCC2(Cn3cccn3)CC2)c2ccc(C)c(C)c2n1,0,-0.02
OC1CCC2CN(c3ncc(Cl)c(N4CC5CCC(O)C5C4)n3)CC12 (stereo unspecified),40,-5.8
COc1ccc(CN2C[C@@H]3NCCO[C@H]3C2)cc1Cn1cccn1,-16,1.59
CCn1nc(C(=O)N2CCC2)c2ccccc2c1=O,-10,1.83
CC(C)c1nc(CNc2cc(C(F)(F)F)cc3c2OCC(=O)N3)cs1,1,-0.2
O=C1CCCC1C1COCCN1C(=O)c1cc2c(F)cc(Br)cc2[nH]1 (stereo unspecified),-6,0.79
O=C(O)c1c(S(=O)(=O)N2CC[C@H]3CCCC[C@H]3C2)sc2c1CCNC2,-10,1.18
Cc1ccc(Cc2nc(N3CCCN(C(=O)COc4ccccc4)CC3)c3c(C)nn(-c4ccccc4)c3n2)cc1,-15,2.51
